Measured values from PubChem BioAssay AID2147 (National Center for Advancing Translational Sciences (NCATS), 2009).
About 3,600 (1.6%) of roughly 230,000 compounds were called active. Inconclusive results, whose numbers are uncertain, are shown with a selection of clear calls. The call rests on the fitted dose curve; in most records, active means well fitted inhibition curve with a large enough effect (not every such curve was filed as active); inconclusive means small, poorly fitted or top-dose-only effect, or another doubt; inactive means no such curve, though single readings can be large or run the other way. A potency beside an inconclusive call is a rough fit, not a confirmed value.
Further: nearly all actives have a fitted effect of over 50% in size.
Potency means the concentration at half of the fitted maximal effect; tags describe the fitted curve by direction and shape.
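Wherever activity change, negative = inhibition is given: 0% = wells with enzyme and -100% = buffer wells without enzyme.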

The molecules below were run against Lysine-specific demethylase 4E (Homo sapiens) (UniProt B2RXH2) (assay: qHTS Assay for Inhibitors of Human Jumonji Domain Containing 2E (JMJD2E)). Settings: JMJD2E catalytic domain, FDH-coupled NADH fluorescence (FDH is formaldehyde dehydrogenase); series mostly up to 57.1 µM; activity change, negative = inhibition: at the top concentration.
Chain of UniProt B2RXH2 (B2RXH2 whole entry, looked up, the tested form may be a part): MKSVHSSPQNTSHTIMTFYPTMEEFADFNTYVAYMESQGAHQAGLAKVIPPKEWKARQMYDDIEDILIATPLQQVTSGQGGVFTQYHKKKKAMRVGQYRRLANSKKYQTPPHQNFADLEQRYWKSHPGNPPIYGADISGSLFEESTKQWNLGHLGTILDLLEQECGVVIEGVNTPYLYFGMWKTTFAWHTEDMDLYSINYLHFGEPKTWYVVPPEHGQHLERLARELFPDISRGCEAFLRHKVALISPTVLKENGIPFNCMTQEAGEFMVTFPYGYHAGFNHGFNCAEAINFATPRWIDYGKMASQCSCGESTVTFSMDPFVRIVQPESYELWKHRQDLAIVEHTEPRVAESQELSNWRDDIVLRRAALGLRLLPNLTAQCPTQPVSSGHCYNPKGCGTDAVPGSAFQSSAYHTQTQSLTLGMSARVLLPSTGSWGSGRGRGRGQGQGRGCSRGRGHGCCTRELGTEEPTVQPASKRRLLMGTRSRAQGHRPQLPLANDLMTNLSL
O=C(Cc1ccc(Cl)c(Cl)c1)N1CCCCC1CN1CCCC1 (stereo not given) was tested, and the “activity change, negative = inhibition” value was inactive: 2.37%. O=C(OC1Cc2c(O)cc(O)cc2OC1c1cc(O)c(O)c(O)c1)c1cc(O)c(O)c(O)c1 (stereo not given) was tested, and the Potency was active: 2.51 µM. For CN1C(=O)N(C)C(=O)C2(Cc3c(ccc4ccccc34)N(C)C2)C1=O, the Potency was inconclusive: 17.8 µM [inhibitor, partial curve]. In the case of Brc1ccccc1OCCCN1CCOCC1, the Potency was inconclusive: 35.5 µM [inhibitor, single point]. Nc1ncnc2c1ncn2[C@@H]1O[C@H](COP(=O)(O)CP(=O)(O)OP(=O)(O)O)[C@H](O)[C@H]1O was tested, and the Potency was inconclusive: 31.6 µM [inhibitor, partial curve, poor fit]. CN(C)C(=O)Oc1ccc(Cl)c2cccnc12 was tested, and the Potency was inconclusive: 28.2 µM [inhibitor, partial curve]. With C=C(C)Cn1c(-c2cccs2)n[nH]c1=S the Potency was inconclusive: 14.1 µM [inhibitor, partial curve]. For C[N+]1([O-])[C@@H]2CC[C@H]1CC(OC(=O)[C@@H](CO)c1ccccc1)C2 (stereo not given in full), the “activity change, negative = inhibition” value was inactive: 11.1% [at 25.5 µM]. In the case of COc1cc(OC)cc(-n2nc(C(=O)N3CCC4(CC3)OCCO4)c3ccccc3c2=O)c1, the Potency was inconclusive: 39.8 µM [inhibitor, single point]. For COc1c2ccoc2cc2oc(=O)ccc12, the Potency was inconclusive: 39.8 µM [inhibitor, single point]. For C[C@]12CCC(=O)C=C1CC[C@@H]1[C@@H]2CC[C@@]2(C)[C@H]1CC[C@]2(C)O, the “activity change, negative = inhibition” value was inactive: 1.27%. For O=C1NC(=O)N(Cc2ccccc2)C(=O)/C1=C\c1ccco1, the “activity change, negative = inhibition” value was inactive: -13.1%. In the case of CCCC1C(C#N)=C(N)Oc2c1c(=O)oc1ccccc21 (stereo not given), the Potency was inconclusive: 35.5 µM [inhibitor, single point]. With C=CCn1c(O)c(C(C)=Nc2ccc(N(CC)CC)cc2)c(=O)[nH]c1=O the Potency was inconclusive: 22.4 µM [inhibitor, single point]. With COc1ccc(C(=O)O)cc1OC the “activity change, negative = inhibition” value was inactive: -7.19%. In the case of COc1cc2c(cc1OC)[C@@H]1C(=O)c3ccc(OC)c(CC=C(C)C)c3OC1CO2 (stereo not given in full), the Potency was active: 17.8 µM. With COc1ccc2[nH]cc(C3=CCNCC3)c2c1 the Potency was inconclusive: 31.6 µM [inhibitor, partial curve]. In the case of c1ccc(-c2ccc(-c3n(-c4ccccn4)c4ccccc4[n+]3-c3ccccn3)cc2)cc1, the Potency was inconclusive: 28.2 µM [inhibitor, partial curve]. With CC[n+]1c(-c2ccccc2)c2cc(N)ccc2c2ccc(N)cc21 the Potency was inconclusive: 1 µM [inhibitor, full curve]. With COc1cc(OC)c(OC)cc1/C=C1\C(=O)NC(=O)N(Cc2ccccc2)C1=O the Potency was inconclusive: 31.6 µM [inhibitor, single point].
